60 molecules from PubChem BioAssay AID485344 (National Center for Advancing Translational Sciences (NCATS), 2010) can be followed below.

The campaign covered roughly 340,000 compounds. About 6,900 (2%) were called active. Rule as the data show it: active = inhibition above about 30%; inactive = below that, where a call was filed. This is a selection; strong and weak results do not stand in their true shares. Where no call is shown, the source filed none.

What is called inhibition is the relative decrease from the control value, in per cent.

Chain of UniProt P14416 (P14416 whole entry, looked up): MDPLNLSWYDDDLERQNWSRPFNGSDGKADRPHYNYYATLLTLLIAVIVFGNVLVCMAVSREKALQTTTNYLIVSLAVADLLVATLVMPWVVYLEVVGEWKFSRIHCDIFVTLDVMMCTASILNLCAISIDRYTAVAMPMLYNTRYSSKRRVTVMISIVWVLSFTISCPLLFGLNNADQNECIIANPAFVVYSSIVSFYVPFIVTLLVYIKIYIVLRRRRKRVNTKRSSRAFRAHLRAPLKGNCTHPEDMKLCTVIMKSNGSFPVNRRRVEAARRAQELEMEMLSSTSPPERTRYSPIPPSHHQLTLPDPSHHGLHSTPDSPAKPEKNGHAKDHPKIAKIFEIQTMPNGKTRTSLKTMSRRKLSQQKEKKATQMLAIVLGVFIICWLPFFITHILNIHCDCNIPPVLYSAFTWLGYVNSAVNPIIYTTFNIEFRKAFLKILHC

The test concerns the target D(2) dopamine receptor (Homo sapiens) (UniProt P14416). Nature of the test: HTS Assay for Allosteric Antagonists of the Human D2 Dopamine Receptor: Primary Screen for Antagonists. Also: 0% is about no effect. Conditions: HEK293 TREx D2 cells, calcium flux, dopamine EC80; at 10 µM; stronger effect = higher value. An outline of the steps:
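Measurement of antagonist activity uses fluorescent calcium dye in inducible HEK293 T-REx D2 cells: 10 s baseline, compound addition with 180 s read, EC80 dopamine addition with a further 180 s read.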
For `COc1ccccc1NC(=O)c1cn(-c2ccccc2)nc1-c1ccccc1`, the inhibition was determined as 23.7%.

Regarding `Cc1cc(C(=O)C(=O)Nc2nncs2)c(C)n1-c1ccc(Cl)cc1`, the inhibition is 5.48%.

As to `CCc1ccc(NC(=O)Cn2c(=O)n(-c3cc(OC)c(OC)c(OC)c3)c(=O)c3ccccc32)cc1`, the inhibition was -11.6%.

As for `CC(NC(=O)c1ccc(F)cc1)c1nc2ccccc2[nH]1` (stereo not given), the inhibition is -24%.

Consider `COc1ccc(N2CCN(C(=O)CNS(=O)(=O)c3ccc(Br)s3)CC2)cc1`, for which the inhibition was 16.9%.

As for `N#Cc1nc(/C=C/c2ccc(F)cc2)oc1NCc1ccc(F)cc1`, the inhibition came to 21.8%.

`Cc1ccc(N(C)C(=O)CN2C(=O)CCc3cc(S(=O)(=O)N4CCOCC4)ccc32)cc1`: the inhibition is -0.479%.

For the molecule `O=C(c1ccc2c(c1)N(Cc1cccc(Cl)c1)C(=O)c1ccccc1S2=O)N1CCN(c2cccc(C(F)(F)F)c2)CC1` (stereo not given), the inhibition was -3.18%.

For `O=C(NC1CC(=O)N(c2ccc(F)cc2)C1)c1ccc2c(c1)OCO2` (stereo not given), the inhibition stood at 2.84%.

Consider `COc1ccccc1CNC(=O)CCn1cnc2ccccc2c1=O`, for which the inhibition turned out to be 2.24%.

`CCN1CCN(C(c2ccccc2Cl)c2c(O)cc(C)n(Cc3ccco3)c2=O)CC1` (stereo not given): the inhibition is -9.44%.

As to `Cn1c(=O)c2c(ncn2Cc2ccc(Cl)cc2)n(C)c1=O`, the inhibition is 9.78%.

For `O=C(Cn1c(=O)n2nc(-c3cccc(F)c3)nc2c2ccccc21)N1CCN(c2ccc(F)cc2)CC1`, the inhibition turned out to be 16.2%.

`O=c1cc(N2CCCCC2)c(-c2ccccc2)nn1Cc1c(Cl)cccc1Cl`: the inhibition was active: 31.9%.

Regarding `Cc1cccc(Cn2nnc3c(=O)[nH]c(C4CCCN(C(=O)c5ccccc5Cl)C4)nc32)c1` (stereo not given), the inhibition is -4.69%.

For `COC(=O)c1cc(S(=O)(=O)NCCN2CCN(c3ccccc3F)CC2)c[nH]1`, the inhibition is active: 73.2%.

Take `COc1cc(C(=O)NCc2nc3cccnc3n2Cc2ccc(C)cc2)cc(OC)c1OC`: the inhibition is -1.4%.

On to `Cc1cc(C)c(NS(=O)(=O)c2ccc(-c3coc(C)n3)cc2)c(C)c1`, for which the inhibition stood at 6.84%.

Turning to `CC(=O)c1ccc(NC(=O)Cn2ncc3c4ccccc4n(Cc4ccccc4)c3c2=O)cc1`, the inhibition was -0.518%.

As to `COc1ccc(N(C(=O)c2ccccc2)S(=O)(=O)c2ccc3c(c2)n(C)c(=O)n3C)cc1`, the inhibition turned out to be 12.3%.

As for `O=C(NCc1ccc(Cl)cc1)C1CCN(S(=O)(=O)c2ccccc2)CC1`, the inhibition is -6.44%.

Regarding `Cc1ccc(-n2c(=O)c3c(C)c(C)sc3n(Cc3ccc(F)cc3Cl)c2=O)cc1C`, the inhibition came to 11.9%.

Consider `COc1ccc(CCNC(=O)Cc2c(C)c3cc4c(C)coc4cc3oc2=O)cc1OC`, for which the inhibition was -3.8%.

Take `Oc1ccc(-c2nc3ccc(Cl)cn3c2Nc2ccc3c(c2)OCO3)cc1`: the inhibition was found to be 3.86%.

Consider `CCOc1ccc(C2C(=O)N(C3CCCCC3)CC(=O)N2CCc2ccccc2)cc1OC` (stereo not given), for which the inhibition is -23.4%.

Regarding `O=C(CNc1ccccc1)N/N=C/c1ccc2c(c1)OCO2`, the inhibition was active: 37.3%.

Take `Cc1ccccc1Cn1c(=O)n(CC2CCC(C(=O)N3CCOCC3)CC2)c(=O)c2sccc21` (stereo not given): the inhibition is -1.8%.

`Cc1cc(C)c(S(=O)(=O)N2CCN(Cc3ccc4c(c3)OCO4)CC2)cc1C`: the inhibition turned out to be 10.4%.

As to `Cc1c(Cl)cccc1Nc1nn2c(=O)c3ccc(C(=O)NCCC4=CCCCC4)cc3nc2s1`, the inhibition is -1.63%.

For `CCCCCn1c(CNC(=O)c2ccccc2)nc2ccccc21`, the inhibition was -12.9%.

For the molecule `CCc1ccc(S(=O)(=O)NCc2nc3cccnc3n2Cc2cccc(OC)c2)cc1`, the inhibition was 18.5%.

`CCN(CC)c1ccc(-n2nc3cc(C)c(NC(=O)c4ccccc4C)cc3n2)c(C)c1`: the inhibition was 20.8%.

Consider `CCOc1ccc(NC(=O)Cn2c(=O)n(CCCCC(=O)NCc3ccc4c(c3)OCO4)c(=O)c3ccccc32)cc1`, for which the inhibition is -14.1%.

With `COc1ccccc1-c1nn2c(=O)cc(CN3CCN(C(=O)/C=C/c4ccccc4)CC3)nc2s1`, the inhibition turned out to be 8.85%.

Take `CN(C)c1ccc(Nc2nc3ccccc3n3nnnc23)cc1`: the inhibition is 12%.

For `COc1ccc(N2CCN(S(=O)(=O)c3ccc(-c4cnc(C5CC5)o4)cc3)CC2)cc1`, the inhibition is 8.05%.

Turning to `COc1ccc(-c2c(-c3ccccc3)c(C(=O)C(=O)NCCCN(C)C)n3ccc4cc(OC)c(OC)cc4c23)cc1OC`, the inhibition is active: 48.3%.

`COc1cccc(CNC(=O)CN2C(=O)N(c3cccc(Cl)c3)S(=O)(=O)c3ccccc32)c1OC`: the inhibition turned out to be 0.0887%.

Take `COc1ccccc1CNC(=O)CSc1nc(=O)[nH]c2c1CCC2`: the inhibition was -13.3%.

As for `CC(C)(C)CC(C)(C)c1ccc(OCC(=O)Nc2ccc(S(=O)(=O)Nc3ncccn3)cc2)cc1`, the inhibition was -4.54%.

Take `Cc1ccc(C)c(N(C)C(=O)Cc2c(C(=O)O)[nH]c3ccc(Cl)cc23)c1`: the inhibition is 6.33%.

Consider `CCN1CCN(c2cc(C)c3cc(NC(=S)NCCCN4CCc5ccccc5C4)ccc3n2)CC1`, for which the inhibition was active: 52.6%.

Take `COc1ccc(CN2CCN(c3ccccn3)CC2)cc1OCc1ccccc1`: the inhibition was active: 87%.

Regarding `COc1ccc(C2C(C(=O)Nc3ccc(C)cc3C)=C(C)Nc3nc(SCc4cccc(C)c4)nn32)c(OC)c1` (stereo not given), the inhibition was -5.11%.

`N#CC(C#N)=C1C=C2C=C(N3CCOCC3)CCC2CC1` (stereo not given): the inhibition was active: 65.3%.

For `NC(=O)c1nn2c(C(F)(F)F)cc(-c3ccc(Br)cc3)nc2c1Cl`, the inhibition came out at 15.6%.

Take `CSc1nc(=O)c2c(n1C)NC(=O)CC2c1cc(F)cc(F)c1` (stereo not given): the inhibition was -0.595%.

Take `Cc1ccc2nc(Cl)c3cc(C(=O)NCCCN(C)Cc4ccccc4)sc3c2c1`: the inhibition is -3.26%.

On to `COc1ccccc1CNc1nc2c(S(=O)(=O)c3ccccc3)nnn2c2ccc(Cl)cc12`, for which the inhibition is -2.9%.

For the molecule `COc1ccc(C2C=C(c3ccc(Br)cc3)Nc3nnnn32)c(OC)c1` (stereo not given), the inhibition was 21.2%.

For the molecule `COc1ccc(Nc2cc(C(=O)NC3CCCC3)c3ccccc3n2)cc1`, the inhibition was -22.6%.

For the molecule `COC(=O)CCCCC(=O)OC`, the inhibition is active: 36.5%.

On to `Cc1ccc(NC(=O)c2c(NC(=O)c3ccccc3Cl)sc3c2CCC3)cc1`, for which the inhibition worked out at 2.78%.

Turning to `CN1CCN(C(=O)Cn2ncc3c4ccccc4n(Cc4ccc(Cl)cc4)c3c2=O)CC1`, the inhibition was found to be 7.51%.

With `Cc1cc(C)c(NC(=O)c2c(C)nn(-c3ccc(F)cc3)c2-n2cccc2)c(C)c1`, the inhibition is 0.221%.

With `O=C(CSc1nccn1Cc1ccc(F)cc1)NCc1ccc(F)cc1`, the inhibition came out at 4.49%.

Regarding `CS(=O)(=O)N1CCc2cc(C(=O)N3CCN(c4ccccc4F)CC3)ccc21`, the inhibition worked out at 5.31%.

As to `Cc1ccccc1NC(=O)Cn1nnc(C(=O)NCCc2ccccc2)c1N`, the inhibition amounted to 9.14%.

On to `O=C(NC1CCCCC1)c1ccc(CSc2nc3ccncc3n2Cc2ccc(F)cc2)cc1`, for which the inhibition stood at 4.65%.

As for `CCc1nn2c(=O)c(S(=O)(=O)Nc3ccc(Br)cc3F)c(C)nc2s1`, the inhibition is -5.82%.
